# Laboratory results published in PubChem BioAssay AID1508623 (National Center for Advancing Translational Sciences (NCATS), 2021).
# About 450 (0.94%) of roughly 48,000 compounds were called active. Roughly 19% stayed inconclusive and do not appear here. The call rests on the fitted dose curve; in most records, active means well fitted inhibition curve with a large enough effect; inconclusive means small, poorly fitted or top-dose-only effect; inactive means no such curve, though single readings can be large or run the other way. The list shows a part of the results.
# Experiment: Primary qHTS for Identification of Small Molecule Inhibitors of Huntingtin Promoter Activity; further: nearly all actives have a fitted effect of over 50% in size
# Settings: HEK293 HTT promoter firefly luciferase reporter (activity 0% = vehicle and -100% = no light), 24 h; series mostly up to 57.5 µM; activity change, negative = inhibition: at the top concentration
# Excerpt: Assay Provider: Russell L. Margolis M.D.
# Department Neurology, Johns Hopkins University School of Medicine, Baltimore, MD
# Huntington's Disease (HD) is a neurodegenerative disorder caused by a CAG repeat expansion in exon 1 of huntingtin (HTT). While there are currently no disease-modifying treatments for HD, recent efforts have focused on development of nucleotide-based therapeutics to lower HTT expression. As an alternative to siRNA or oligonucleotide methods, we hypothesized that suppression of HTT expression might be accomplished by small molecules that either (1) directly decrease HTT expression by suppressing HTT promoter activity or (2) indirectly decrease HTT expression by increasing the promoter activity of HTT-AS, the gene antisense to HTT that appears to inhibit expression of HTT.
# We developed and employed a high throughput screen for modifiers of HTT and HTT-AS promoter activity using luminescent reporter HEK293 cells; of the 52,041 compounds tested, we identified 898 replicable hits. We used a rigorous stepwise approach to assess compound toxicity and the capacity of the compounds to specifically lower huntingtin protein in 5 different cell lines, including HEK293 cells, HD lymphoblastoid cells, mouse primary neurons, HD iPSCs differentiated into cortical-like neurons, and HD hESCs. We found no compounds which were able to lower huntingtin without lowering cell viability in all assays, though the potential efficacy of a few compounds at non-toxic doses could not be excluded.
# SEQUENCE No. (1, 2, 3, etc.); […] (e.g., Cells, Incubation, Reagent, etc.); VALUE and DESCRIPTION.
# 1; Reagent; 4 uL; 2,500 Hek293 luciferase reporter cells per wells
# 3; Compound; 23 nL; Control inhibitor / compound library
# 5; Reagent; 2.5 uL; Firefly Luc reagent; Dual-Glo Luciferase Reporter Assay System (Promega)
# 6; Time; 10 min; room temperature incubation
# 7; Detection; Luminescence; FLuc
# NOTES (numbers refer to sequence above)
# 1; High-throughput screening, measuring luminescence from a Hek293 luciferase reporter, was performed in 1,536 well white-walled tissue-culture treated plates. 2,500 cells were plated in 4 µL of Opti-MEM per well using a Multidrop Combi Reagent Dispenser (ThermoFisher).
# 2; Assay plates were cultured for 24 hours.
# 3; Control inhibitor (PTC124; final concentration of 50 uM) and compound library (at final concentrations of 460 nM - 57.5 uM) were added to the assay plate using the Kalypsis Pintool Robotic System equipped with 1536 pinheads.
# 4; Cells were then incubated for 24 hours at 37 degrees C prior to luminescence measurements.
# 5; In all cases, luminescence was measured using the Dual-Glo Luciferase Reporter Assay System (Promega) following the manufacturer's instructions.
# 6; Room temperature incubation.
# 7; Luminescence signal was obtained using the PerkinElmer ViewLux plate reader. Results were normalized to vehicle control (0% activity) and zero RLU (-100% activity).
row,Structure (SMILES),"activity change, negative = inhibition"
1,CCC(=O)OCCCNc1nc(-c2ccc(Cl)cc2)nc2ccccc12,inactive: -28.6%
2,CCc1cccc(-n2nnc(-c3nc(-c4cccs4)no3)c2N)c1,inactive: 54.2%
3,CN[C@H]1CCc2cc(OC)c(OC)c(OC)c2-c2ccc(OC)c(=O)cc21,inactive: -25.3%
4,Clc1ccc2nc(-c3ccc(Br)o3)c(Nc3ccc4c(c3)OCCO4)n2c1,inactive: 32.1%
5,COc1cccc(OC)c1C(=O)Nc1cccc(-c2nc3cc(C)cc(C)c3o2)c1,inactive: -16.9%
6,COc1ccc(S(=O)(=O)N(C)Cc2nc(-c3cccc(C)c3)no2)cc1,inactive: -21.4%
7,O=C(CSc1nc2ccsc2c(=O)n1Cc1ccccc1F)NCc1ccccc1,inactive: -6.47%
8,CCc1ccc(NC(=O)N(Cc2ccc(C)cc2)Cc2cccn2-c2nnc(N3CCCC3=O)s2)cc1,inactive: -11.9%
9,CCOC(=O)c1c(C)c(-c2ccccc2)n(CC(=O)NCCc2ccc(C)cc2)c1C,inactive: -3.89%
10,CCOC(=O)c1ccc(NC(=O)c2cc(=O)c3cc(CC)ccc3o2)cc1,inactive: 24.9% [at 11.5 µM]
11,COc1ccc(-c2cc(C(F)(F)F)nc(SCC(=O)NCCc3ccc(OC)c(OC)c3)n2)cc1,inactive: -4.5%
12,Cc1ccc(NC(=O)N2CCC(CN3CCC(C)CC3)CC2)cc1F,inactive: 14.7%
13,CCCc1cc(=O)n2[nH]c(-c3ccc(C)cc3)nc2n1,inactive: 32.4%
14,Cc1ccc(NC(=O)C2CCCN(c3nnc(-n4c(C)ccc4C)s3)C2)cc1Cl (centres undefined),inactive: -5.23%
15,COc1cccc(CNC(=O)C(NS(=O)(=O)c2ccc3nc(C)sc3c2)C(C)C)c1 (centres undefined),inactive: -3.39%
16,Cc1cccc(NC(=O)CSc2nnc(C)c(=O)[nH]2)c1,inactive: -8.25%
17,CCS(=O)(=O)NCC(c1ccco1)N1CCN(c2ccc(OC)cc2)CC1 (centres undefined),inactive: -10.2%
18,Cc1ccccc1CN1c2ccccc2-c2nc(SCC(=O)NCCc3ccccc3)ncc2S1(=O)=O,inactive: -9.58%
19,CCN(CC)c1ccc(-n2nc3cc(C)c(NC(=O)c4ccccc4F)cc3n2)cc1,inactive: -2.93%
20,Cc1cccc(NC(c2cccc(F)c2)c2ccc3ccc(C)nc3c2O)n1 (centres undefined),inactive: -2.27%
21,NC(=O)CSc1nc2ccc(NC(=O)COc3ccccc3)cc2s1,inactive: -7.93%
22,NCCNCCNCCN,inactive: 3.08%
23,CCCn1c(=N)c(C(=O)NC2CCCC2)cc2c(=O)n3cc(C)ccc3nc21,inactive: 4.38%
24,CC1CCC(NC(=O)c2ccc3c(c2)N(Cc2ccccc2F)C(=O)c2ccccc2S3)CC1 (centres undefined),inactive: 28.4%
25,c1ccc(-c2cc(-c3ccccc3)c3c(n2)-c2ccccc2OC3)cc1,inactive: -8.86%

row,Structure (SMILES),"activity change, negative = inhibition"
1,Cc1nc2ccc(S(=O)(=O)NC(C(=O)NCc3ccccc3Cl)C(C)C)cc2s1 (centres undefined),inactive: -7.14%
2,Cc1ccc2c(CC(=O)N3CCN(c4cccc(Cl)c4)CC3)coc2c1,inactive: -3.88%
3,CCCCNc1ccc(-c2nc(-c3ccccc3)no2)cc1[N+](=O)[O-],inactive: 11.2%
4,CSc1ncc(Cl)c(C(=O)NCc2ccc(C)cc2)n1,inactive: -15.9%
5,COc1ccc(OC)c(CNS(=O)(=O)c2c(C(=O)N3CCC(C)CC3)c(C)n(C)c2C)c1,inactive: -13.1%
6,Cc1cc(C)cc(NC(=O)Cn2nnc(C(=O)NCCc3ccccc3)c2N)c1,inactive: -3.78%
7,CCOc1ccc(C(=O)NCCc2sc(-c3ccc(C)cc3)nc2C)cc1,inactive: -19.3%
8,COc1cc(Nc2nc(SCc3ccccc3F)nc3ccccc23)cc(OC)c1,inactive: -24.4%
9,Cc1ccc(CCNC(=O)c2ccc(CS(=O)(=O)c3ccc(Br)cc3)o2)cc1,inactive: -12.2%
10,CCOc1ccccc1NC(=O)CSc1c(C)cnc2c1c(=O)n(C)c(=O)n2C,inactive: -17.8%
11,CC1=C(C(=O)Nc2c(C)cc(C)cc2C)C2(CCN(C(C)C)CC2)OC1=O,inactive: -22.5%
12,CC1=C(C(=O)Nc2cccc(C)c2C)C2(CCCCC2)OC1=O,inactive: -12.9%
13,COc1ccc(CCNC(=O)c2cnc3sc(N4CCCCCC4)nn3c2=O)cc1OC,inactive: 3.24%
14,CCOCCCNC(=O)C(c1ccc(OC)cc1)N(Cc1cccs1)C(=O)c1ccccc1O (centres undefined),inactive: -22.1%
15,COc1ccccc1N1CCN(CCCNC(=O)c2cnn(-c3ccccc3Cl)c2C2CCN(C(=O)OC(C)(C)C)CC2)CC1,inactive: -13.7%
16,CC(C)NC(=O)CSc1nc2ccccc2nc1N1CCCCC1,inactive: -11%
17,COc1ccc(C(c2c(C)n(C)n(-c3ccccc3)c2=O)c2c(C)n(C)n(-c3ccccc3)c2=O)cc1O,inactive: -14.4%
18,Cc1ccc(N2CC(NC(=O)Cc3cccs3)CC2=O)cc1 (centres undefined),inactive: -12.8%
19,COc1cc(OC)c(NC(=O)Nc2nnc(N(C)C3CCCCC3)s2)cc1Cl,inactive: 5.48%
20,CCOc1cccc2sc(N(Cc3cccnc3)C(=O)c3ccco3)nc12,inactive: -15.4%
21,COc1ccc(-c2cc3c(=O)n(CC(=O)Nc4ccccc4C(F)(F)F)ccn3n2)cc1OC,inactive: -6.45%
22,CC(=O)c1ccc(NC(=O)CN(C)S(=O)(=O)c2cc3c(cc2C)NC(=O)CO3)cc1,inactive: -4.47%
23,CC1CCN(CC(=O)N2CCCc3c2c(=O)oc2ccc(OCc4ccccc4)cc32)CC1,inactive: -19.1%
24,Cc1c(C(=O)Nc2ccc(Br)cc2F)oc2ccc(S(=O)(=O)N3CCCCC3)cc12,inactive: -22.2%
25,CC1(C(=O)Nc2cccc(C(F)(F)F)c2)Cc2ccccc2C(=O)O1 (centres undefined),inactive: -21.8%

row,Structure (SMILES),"activity change, negative = inhibition"
1,Cc1nc(N2CCOCC2)c2c(C(=O)N3CCN(c4cc(Cl)ccc4C)CC3)c(C)oc2n1,inactive: 4.16%
2,O=C(CN1C(=O)C2CCCCN2c2ccc(C(=O)N3CCCC3)cc21)NCc1ccc(F)cc1 (centres undefined),inactive: -11.6%
3,CCOc1ccccc1CNc1ncnc2onc(-c3ccc(F)cc3)c12,inactive: -17.4%
4,CCCNC(=O)CN1C(=O)COc2ccc(S(=O)(=O)N3CCCC3)cc21,inactive: -13.6%
5,CCN1CCC(N(Cc2ccc(F)cc2)C(=O)Nc2cc(C)ccc2C)CC1,inactive: -10.2%
6,COc1ccc(-n2cc(C(=O)NCCc3ccc(C)cc3)c3ccccc3c2=O)cc1,inactive: -13.6%
7,COC(=O)c1ccc(C2CC(=O)Nc3c2c(C)nn3-c2nc(C)cc(C)n2)cc1 (centres undefined),inactive: -18.3%
8,O=C(Nc1ccc(S(=O)(=O)Nc2ncccn2)cc1)c1cccc(Cl)c1,inactive: -0.368%
9,CCn1c(SC)nc2c([nH]c3ccccc32)c1=O,inactive: -13.5%
10,O=C(Cn1ccc2cc(S(=O)(=O)N3CCCC3)ccc21)NCc1ccc(Cl)cc1,inactive: -22.5%
11,Cc1cc(C)cc(NC(=O)CC(C)n2nc(C)cc2C)c1 (centres undefined),inactive: -16%
12,COc1cc(NC(=O)Cn2c(=O)n(Cc3ccccc3)c(=O)c3oc4ccccc4c32)cc(OC)c1,inactive: -17.5%
13,O=C(Nc1ccc(F)cc1)C1CCN(c2nc3ccccc3nc2C(F)(F)F)CC1,inactive: 3.44%
14,COc1ccc(-c2noc(CC(=O)N(C)c3ccccc3F)n2)cc1,inactive: -7.72%
15,COc1ccc(NC(=O)C2=C(C)Nc3nc(SCc4ccc(C)cc4C)nn3C2c2cccc(OC)c2OC)cc1 (centres undefined),inactive: -0.145%
16,Cc1[nH]c(=O)[nH]c(=O)c1S(=O)(=O)Nc1cccc(Cl)c1C,inactive: -7.97%
17,CCOc1ccc(CNC(=O)Cn2nc(C)c3nn(-c4ccc(Cl)cc4)c(C)c3c2=O)cc1,inactive: 8.63%
18,Cc1oc2ncnc(N3CCCCC3)c2c1C(=O)NCC1CCN(Cc2ccccc2F)CC1,inactive: 11.2%
19,COc1ccccc1NC(=O)c1sc2nc(-c3cc4cc(Cl)ccc4oc3=O)[nH]c(=O)c2c1C,inactive: -3.53%
20,O=c1[nH]c(=O)n([C@H]2C[C@@H](O)[C@@H](CO)O2)cc1F,inactive: -22.8%
21,O=C(NCCN1CCOCC1)c1ccc(Cl)cc1,inactive: 16.3%
22,COc1ccc(OC)c(NC(=O)Cn2nc3c(cc2=O)CCCC3)c1,inactive: -14.7%
23,COc1ccc(CCNS(=O)(=O)c2ccc3c(c2)c(=O)n(C)c(=O)n3C)cc1OC,inactive: -0.0934%
24,Cc1ccc(NC(=O)c2nc(S(C)(=O)=O)ncc2N(Cc2cccc(F)c2)Cc2ccco2)cc1C,inactive: -31.7%
25,Cc1ccc(NC(=O)CCCc2nnc3n(C)c(=O)c4sccc4n23)cc1C,inactive: -18.3%

row,Structure (SMILES),"activity change, negative = inhibition"
1,Cc1ccc(S(=O)(=O)c2cn(C)c3cc(N4CCOCC4)c(F)cc3c2=O)c(C)c1,inactive: -2.6%
2,Oc1c(C(c2ccc(F)cc2)N2CCCC2)sc2nc(-c3ccco3)nn12 (centres undefined),inactive: -8.66%
3,Cc1ccc(CCNC(=O)C2COc3ccccc3C2)cc1 (centres undefined),inactive: -6.39%
4,O=C(Oc1ccccc1C(=O)O)c1ccccc1O,inactive: 4.2%
5,Cc1ccc(Cl)cc1-n1c(=O)c2sc3ccccc3c2n(CC(=O)NC2CCCC2)c1=O,inactive: -26.2%
6,Cc1ccc2c(c1)-c1onc(C(=O)N3CCN(c4cc(C)ccc4C)CC3)c1CO2,inactive: -9.84%
7,Cc1cc(C)n(-c2nc3cc(Cl)ccc3nc2N2CCN(c3cccc(C)c3C)CC2)n1,inactive: -9.53%
8,COc1ccccc1CNS(=O)(=O)c1c(C(=O)N2CCC(C)CC2)c(C)n(C)c1C,inactive: -16.4%
9,Cc1ccc(CCNC(=O)Cn2ncc3c([nH]c4ccccc43)c2=O)cc1,inactive: 1.4%
10,COc1ccc(C)cc1NC(=O)CSc1nc(=O)n(Cc2cccnc2)c2c1CCC2,inactive: 0%
11,COC(=O)c1ccccc1NC(=O)CSc1cc(-c2ccccc2)nc(C)n1,inactive: -11.8%
12,O=C(CCn1c(=O)c2cccn2c2ccc(F)cc21)NCCc1ccc(Cl)cc1,inactive: 2.14%
13,COc1ccc(NC(=O)N2CCC(CN3CCCC3)CC2)c(OC)c1,inactive: -14.5%
14,Clc1ccc(-c2ccc(CNCCSc3nnnn3-c3ccccc3)o2)cc1,inactive: -16%
15,Clc1ccccc1-c1nc(-c2ccncc2)no1,inactive: 30.1%
16,CC(C)(C)OC(=O)N1CCC(c2c(C(=O)NCCN3CCOCC3)cnn2-c2cccc(F)c2)CC1,inactive: -24.6%
17,CCN1CCN(c2oc(-c3ccc(COc4ccc(OC)cc4)o3)nc2C#N)CC1,inactive: -25.4%
18,COc1c(C)c2c(c(O)c1C/C=C(\C)CCC(=O)O)C(=O)OC2,inactive: -20.7%
19,COc1ccc(C2(CNC(=O)C(=O)Nc3ccc(C)c(Cl)c3)CCCC2)cc1OC,inactive: -8.38%
20,CCN(CC)S(=O)(=O)c1nnc(NC(=O)COc2ccccc2)s1,inactive: -0.156%
21,COc1ccc(OC)c(C(=O)CN2C(=O)N(c3cc(C)cc(C)c3)S(=O)(=O)c3ccccc32)c1,inactive: -20.2%
22,Cc1ccc(NC(=O)CSc2nnc(C)s2)c(C)c1,inactive: -6.53%
23,NS(=O)(=O)c1cc(Cl)c(Cl)c(S(N)(=O)=O)c1,inactive: -7.24%
24,COc1ccc(NC(=O)C2CCN(c3nc4ccccc4[nH]3)CC2)cc1OC,inactive: -0.706%
